Results as given in patent US20250326851A1 (Bayer, published 2025).
Several values for one entry are separate records, joined by “and”; a condition that tells them apart may be missing. Equal values may be shown once.

B1: TPP-14099 (antibody)
chain 1: EVQLLESGGGLVQPGGSLRLSCAASGFTFSDYGVHWVRQAPGKGLEWVSGVSWNGSRTHYADSVKGRFTISRDNSKNTLYLQMNSLRAEDTAVYYCVTRGAWGQGTLVTVSS[skipping human IgG1 constant region]
chain 2: QSVLTQPPSASGTPGQRVTISCSGSSFNIGSHFVYWYQQLPGTAPKLLIYKNNQRPSGVPDRFSGSKSGTSASLAISGLRSEDEADYYCAAWDDSLNGPVFGGGTKLTVLGQPKAAPSVTLFPPSSEELQANKATLVCLISDFYPGAVTVAWKADSSPVKAGVETTTPSKQSNNKYAASSYLSLTPEQWKSHRSYSCQVTHEGSTVEKTVAPTECS
B2: TPP-18208 (aglycosylated) (antibody)
chain 1: EVQLLESGGGLVQPGGSLRLSCAASGFTFSDYGVHWVRQAPGKGLEWVSGVSWNGSRTHYADSVKGRFTISRDNSKNTLYLQMNSLRAEDTAVYYCVTRGAWGQGTLVTVSS[skipping human IgG1 constant region with changes]
chain 2: B1 chain 2

Columns and labels:
[1] = target: T1, mouse CCR8 on HEK293 cells (mouse, UniProt P56484 1-353); assay: cell-based or functional assay
T1 sequence (looked up): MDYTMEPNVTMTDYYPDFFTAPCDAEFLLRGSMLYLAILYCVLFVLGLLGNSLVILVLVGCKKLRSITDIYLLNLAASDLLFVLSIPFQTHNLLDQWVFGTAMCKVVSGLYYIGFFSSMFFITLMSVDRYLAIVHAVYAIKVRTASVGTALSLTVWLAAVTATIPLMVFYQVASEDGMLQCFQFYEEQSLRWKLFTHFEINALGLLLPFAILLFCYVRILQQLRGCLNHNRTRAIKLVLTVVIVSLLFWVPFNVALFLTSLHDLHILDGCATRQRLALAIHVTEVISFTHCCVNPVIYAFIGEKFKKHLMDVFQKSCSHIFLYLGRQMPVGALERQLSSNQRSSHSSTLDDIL

[2] = target: T1, mouse CCR8 on HEK293 cells; assay: flow cytometry on murine CCR8-transfected HEK293 cells
Procedure: The binding properties of murine surrogate antibodies were assessed using flow cytometry on HEK293 cells ectopically expressing murine CCR8.

[3] = target: T1, mouse CCR8 on HEK293 cells; assay: cell-based or functional assay; remark: listed apart in the source

| Binder | ADCC EC50 (ng/mL) at 20 hours; mouse CCR8-expressing HEK293 cells, mouse NK cells [1] | ADCC EC50 (pM) at 20 hours; mouse CCR8-expressing HEK293 cells, mouse NK cells [1] | EC50 [2] | cumulative ADCP EC50 (ng/mL), 4 hours; mouse CCR8-expressing HEK293 cells, mouse M2 macrophages [3] | cumulative ADCP EC50 (ng/mL), 12 hours; mouse CCR8-expressing HEK293 cells, mouse M2 macrophages [3] | cumulative ADCP EC50 (pM), 4 hours; mouse CCR8-expressing HEK293 cells, mouse M2 macrophages [3] | cumulative ADCP EC50 (pM), 12 hours; mouse CCR8-expressing HEK293 cells, mouse M2 macrophages [3] |
| --- | --- | --- | --- | --- | --- | --- | --- |
| B1 | 87.6 ng/mL | 584 pM | 5.58 nM and 0.805 µg/mL | 68.6 ng/mL | 17 ng/mL | 475 pM | 118 pM |
| B2 | – | – | 2.47 nM and 0.357 µg/mL | – | – | – | – |
